Laboratory results published in PubChem BioAssay AID493208 (National Center for Advancing Translational Sciences (NCATS), 2011).
Hit rate of the full screen: of about 44,000 compounds, about 340 (0.77%) were called active. Roughly 5% stayed inconclusive and do not appear here. Calls follow the shape of the dose curve; as a rule, active = well fitted inhibition curve with a large enough effect; inconclusive = small, poorly fitted or top-dose-only effect; inactive = flat fitted curve, though single readings scatter. The list shows a part of the results.

Assay: Acumen qHTS Assay for Inhibitors of the mTORC1 Signaling Pathway in MEF (Tsc2-/-, p53-/-) Cells: Sytravon;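 also: plate controls were DMSO for no effect and rapamycin for full effect; nearly all actives have a fitted effect of over 50% in size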
Conditions: phospho-rpS6 immunofluorescence/PI, 24 h; series mostly up to 38.3 µM; activity change, negative = inhibition: at the top concentration
Method in brief: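 Cell-based qHTS: Tsc2-/- p53-/- MEF, 24 h cpd, 37 °C; fix/perm, anti-phospho-S6 Alexa-488 + PI; Acumen 488 nm scan; pS6/PI ratio, % positive cells; rapamycin 7.5 nM = inhibition ref; PI count = viability.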

Activity change, negative = inhibition, inactive:
Cc1ccc(/C=C(\C#N)c2nc3ccccc3c(=O)[nH]2)cc1 6.32%
COCCOC(=O)c1c(-c2ccccc2)c(-c2ccccc2)nn(C)c1=O -4.59%
CCOc1ccc(CC(=O)Nc2c(C(=O)c3ccccc3)oc3ccc(OC)cc23)cc1OCC 0.184%
CCc1ccccc1NC(=O)Cn1c(=O)n(Cc2ccc(OC)cc2)c(=O)c2oc3ccccc3c21 0.791%
Cc1ccc(C)c(N2CCN(C(=O)c3cnn(-c4ccccc4Cl)c3C3CCN(C(=O)OC(C)(C)C)CC3)CC2)c1 -0.758%
O=C1OC(C(=O)Nc2cc(C(F)(F)F)ccc2Cl)Cc2ccccc21 (stereo not given) -4.7%
COc1ccc(Cc2nc3ccc(C(=O)NCc4ccccc4Cl)cc3o2)cc1 5.45%
O=C(COc1ccc(Cl)cc1)Nc1ccccc1OCc1cc(=O)n2ccccc2n1 9.83%
CCOc1ccc(CC(=O)NCC(c2cccs2)S(=O)(=O)c2ccc(F)c(C)c2)cc1 (stereo not given) 0%
CCc1ccc(NC(=O)C(CC)n2c(=O)c(-c3ccccc3NC(C)=O)nc3ccccc32)cc1 (stereo not given) -10.5%
Cc1ccc(NC(=O)C2CC(=O)N(c3ccc(OC(C)C)cc3)C2)cc1 (stereo not given) 14.5%
CCN(CC)c1ccc(NC(=O)C2CCN(S(=O)(=O)c3cnc[nH]3)CC2)c(C)c1 -3.24%
CCOC(=O)c1c(C)c(-c2ccccc2)n(CC(=O)NC(CC)Cc2ccccc2)c1C (stereo not given) -4.6%
Cc1ccc(Nc2nnc(-c3ccc(C)c(S(N)(=O)=O)c3)c3ccccc23)cc1 -9.48%
COc1cccc(C(=O)Nc2ccc3oc(-c4cccc5c(Br)cccc45)nc3c2)c1 -10.3%
COc1ccccc1N1CCN(C(=O)c2cnn(-c3ccc(F)cc3F)c2C2CCNCC2)CC1 -19.8%
CCc1ccccc1N(C)C(=O)c1ccc2c(=O)n3c(nc2c1)CCCCC3 2.35%
COc1ccc(S(=O)(=O)NCC(c2ccc(N(C)C)cc2)N2CCc3ccccc32)cc1OC (stereo not given) -0.359%
Cc1cccc(OCC(=O)Nc2cccc3cccnc23)c1C -1.85%
CCOC(=O)c1c(NC(=O)c2ccccc2OCC)sc2c1CCC(CC)C2 (stereo not given) 4.67%
COc1ccc(N2CCN(C(=O)CCc3c(C)nc4cc(-c5ccc(OC)cc5OC)nn4c3C)CC2)cc1 0.637%
CN(C)S(=O)(=O)c1ccc(C(=O)NCCSc2c(-c3ccc(Cl)cc3)[nH]c3ccccc23)cc1 -5.09%
CCCOc1ccc(C2C(=O)N(C3CCCCCC3)CC(=O)N2CCC)cc1OC (stereo not given) 12.4%
Cc1nnc(N2C(=O)c3oc4ccccc4c(=O)c3C2c2ccc(Cl)cc2)s1 (stereo not given) -3.96%
Cc1c(C(=O)OC2CCCCCC2)[nH]c2c1C(=O)CC(c1ccc(Cl)cc1)C2 (stereo not given) 2.75%
Cc1ccc2c(c1)C(=O)OC(C(=O)Nc1ncc(Cc3ccc(Cl)cc3)s1)C2 (stereo not given) 2.65%
Cc1cccc(C)c1-n1ncc(C(=O)NC2CCCC2)c1C1CCN(C(=O)OC(C)(C)C)CC1 -6.5%
CCOc1ccc(NC(=O)NCc2cccn2Cc2ccccc2)cc1 -21.2%
O=C(c1ccc2c(c1)CCN2S(=O)(=O)c1ccc(Cl)cc1)N1CCN(c2ccc(F)cc2)CC1 2.23%
O=C(COc1ccc(Cl)cc1Cl)Nc1cccc2cccnc12 0.459%
COc1ccc(Nc2c(-c3ccc(C)o3)nc3cc(C)ccn23)cc1 -14.7%
Cc1cc(C)cc(NC(=O)Cn2cc(C(=O)c3cccs3)c3ccccc32)c1 4.57%
Cc1ccc2oc(-c3ccc(C)c(NC(=O)/C=C/c4ccc(Cl)cc4)c3)nc2c1 4.22%
Cc1ccc2[nH]c3c(=O)n(CC(=O)N(CCN(C)C)Cc4ccccc4)ncc3c2c1 -8.79%
CC(=O)N1CCC(N(Cc2ccco2)C(=O)Nc2ccc(C)c(Cl)c2)CC1 -13.7%
CCOC(=O)CNC(=O)N1[C@H](c2cccs2)[C@@H](C)C(=O)[C@@H](C)[C@@H]1c1cccs1 -6.83%
COc1cc(NC(=O)c2nc3nc(C)cc(C(F)F)n3n2)c(OC)cc1Cl 0.313%
CCOc1ccc(N2CC(NC(=O)C3CCCCC3)CC2=O)cc1 (stereo not given) -4.54%
Cc1ccc(CNC(=O)c2ccc(CN3CC(=O)N4CCCCC4C3=O)cc2)cc1 (stereo not given) -4.12%
CCc1nnc(NC(=O)c2nc(SCc3ccccc3F)ncc2Cl)s1 2.04%
COc1ccc(S(=O)(=O)N2CCN(c3cccc(C)c3C)CC2)c2ccccc12 1.28%
COc1ccc2c(c1)c(=O)c(C(=O)c1ccc(F)cc1)cn2CC(=O)Nc1ccc2c(c1)OCO2 -9.15%
O=C(CCCCCn1c(=O)c2sccc2n(Cc2ccc(Cl)cc2)c1=O)NCc1ccc2c(c1)OCO2 -4.76%
Cc1ccc(S(=O)(=O)N(CC(=O)NCCSc2ccc(Cl)cc2)c2ccccc2C)cc1 -1.68%
COc1ccc(Cl)cc1C(=O)Nc1nnc2n1CCS2 -5.11%
Cc1ccc(NC(=O)C2CCN(c3nnc(C)c4c(C)n(-c5ccccc5)nc34)CC2)c(Cl)c1 0.757%
Cc1cc(Br)ccc1NC(=O)c1sc2nc3n(c(=O)c2c1C)CCCC3 8.39%
CC(C)CCNC(=O)Cn1c(-c2cccs2)cc2cc(F)ccc21 -8.67%
C=Cc1ccc(Cn2c(=O)n(-c3cccc(Cl)c3)c(=O)c3c4c(sc32)CN(C(C)=O)CC4)cc1 -0.922%
O=C(NCCc1ccc(Cl)cc1)c1ccc2c(c1)N(Cc1ccc(Cl)cc1)C(=O)CS2 -3.1%
COCCCNC(=O)CCn1c(=O)c2ccccc2n(CC(=O)Nc2cc(Cl)ccc2OC)c1=O -18.9%
CN1C(C(=O)Nc2cccc(O)c2)=CC(c2ccco2)=NS1(=O)=O 0.518%
CCCCN(CC)c1nc(-c2ccccc2F)nc2ccccc12 -9.06%
Cc1cccc(N2CCn3c2nc2c3c(=O)n(C/C=C/c3ccccc3)c(=O)n2C)c1 0.597%
Cc1cc(C)c(NC(=O)Cn2nnc(S(=O)(=O)c3ccc(C)c(C)c3)c2N)c(C)c1 -10.9%
CC(C)c1ccc(NC(=O)N2c3ccccc3Sc3ccccc32)cc1 2.88%
CCN(CC)S(=O)(=O)c1ccc2c(c1)c(=O)c(C(=O)N1CCN(c3cccc(Cl)c3)CC1)cn2C -1.81%
Cn1c(=O)oc2cc(S(=O)(=O)NC(Cc3ccccc3)C(=O)NCc3ccccc3Cl)ccc21 (stereo not given) -12.6%
CCOc1ccccc1CNC(=O)C1CCN(c2nc3ccccc3nc2C(F)(F)F)CC1 8.58%
COc1ccc(-c2n[nH]c3c2cnc2cc(OC)c(OC)cc23)cc1 0%
